Reference: publication PMC12102759 (2025)

B1: CAPRIN1 peptide 364-379 (Caprin-1), 16-mer library wild type / G3BP1 NFT2 (G3BP1 NTF2 domain, […]) (parent complex)
chain 1: AQMQGPYNFIQDSMLD
chain 2: not shown

Variants of: B1
Test: proteomic peptide phage display deep mutational scan (ProP-PD DMS): M13 P8 16-mer library selected against immobilised GST-tagged bait for four days (rounds), NGS of the eluted pools per day and pseudo-replica; bait immobilised on MaxiSorp plates (10 µg), library pre-cleared on GST, 2 h binding at 4 °C, five washes; one round per day, days 1-4; value from days 2 and 3

Variant | screen value
chain 1 N8T | 0.00181 average fractional NGS count over selection days 2 and 3 (reads of this peptide / all reads for the bait, averaged over …
chain 1 Q4S | 0.00115 average fractional NGS count over selection days 2 and 3 (reads of this peptide / all reads for the bait, averaged over …
chain 1 P6Q | 0.000413 average fractional NGS count over selection days 2 and 3 (reads of this peptide / all reads for the bait, averaged over …
chain 1 G5Y | 0.000955 average fractional NGS count over selection days 2 and 3 (reads of this peptide / all reads for the bait, averaged over …
chain 1 D12G | 0.00045 average fractional NGS count over selection days 2 and 3 (reads of this peptide / all reads for the bait, averaged over …
chain 1 M3V | 0.00499 average fractional NGS count over selection days 2 and 3 (reads of this peptide / all reads for the bait, averaged over …
chain 1 Q4D | 0.0851 average fractional NGS count over selection days 2 and 3 (reads of this peptide / all reads for the bait, averaged over …
chain 1 N8E | 0.000764 average fractional NGS count over selection days 2 and 3 (reads of this peptide / all reads for the bait, averaged over …
chain 1 G5S | 0.0159 average fractional NGS count over selection days 2 and 3 (reads of this peptide / all reads for the bait, averaged over …
chain 1 M3P | 0.000124 average fractional NGS count over selection days 2 and 3 (reads of this peptide / all reads for the bait, averaged over …
chain 1 P6M | 0.00513 average fractional NGS count over selection days 2 and 3 (reads of this peptide / all reads for the bait, averaged over …
chain 1 Q2F | 0.0275 average fractional NGS count over selection days 2 and 3 (reads of this peptide / all reads for the bait, averaged over …
chain 1 N8K | 0.00135 average fractional NGS count over selection days 2 and 3 (reads of this peptide / all reads for the bait, averaged over …
chain 1 N8L | 0.0106 average fractional NGS count over selection days 2 and 3 (reads of this peptide / all reads for the bait, averaged over …
chain 1 M3N | 0.000297 average fractional NGS count over selection days 2 and 3 (reads of this peptide / all reads for the bait, averaged over …
chain 1 Q11H | 0.000376 average fractional NGS count over selection days 2 and 3 (reads of this peptide / all reads for the bait, averaged over …
chain 1 G5I | 0.00166 average fractional NGS count over selection days 2 and 3 (reads of this peptide / all reads for the bait, averaged over …

Variant | screen value
chain 1 A1L | 0.00141 average fractional NGS count over selection days 2 and 3 (reads of this peptide / all reads for the bait, averaged over …
chain 1 A1W | 0.000626 average fractional NGS count over selection days 2 and 3 (reads of this peptide / all reads for the bait, averaged over …
chain 1 A1P | 0.000523 average fractional NGS count over selection days 2 and 3 (reads of this peptide / all reads for the bait, averaged over …
chain 1 M14S | 0.000108 average fractional NGS count over selection days 2 and 3 (reads of this peptide / all reads for the bait, averaged over …
chain 1 D12Q | 0.000599 average fractional NGS count over selection days 2 and 3 (reads of this peptide / all reads for the bait, averaged over …
chain 1 Q2P | 0.00278 average fractional NGS count over selection days 2 and 3 (reads of this peptide / all reads for the bait, averaged over …
chain 1 Q2D | 0.000271 average fractional NGS count over selection days 2 and 3 (reads of this peptide / all reads for the bait, averaged over …
chain 1 Y7L | 0.00463 average fractional NGS count over selection days 2 and 3 (reads of this peptide / all reads for the bait, averaged over …
chain 1 G5W | 0.000297 average fractional NGS count over selection days 2 and 3 (reads of this peptide / all reads for the bait, averaged over …
chain 1 M3K | 0.000885 average fractional NGS count over selection days 2 and 3 (reads of this peptide / all reads for the bait, averaged over …
chain 1 P6I | 0.000671 average fractional NGS count over selection days 2 and 3 (reads of this peptide / all reads for the bait, averaged over …
chain 1 Q11V | 0.00065 average fractional NGS count over selection days 2 and 3 (reads of this peptide / all reads for the bait, averaged over …
chain 1 Q4E | 0.00014 average fractional NGS count over selection days 2 and 3 (reads of this peptide / all reads for the bait, averaged over …
chain 1 M14Y | 0.000624 average fractional NGS count over selection days 2 and 3 (reads of this peptide / all reads for the bait, averaged over …
chain 1 M3L | 0.00308 average fractional NGS count over selection days 2 and 3 (reads of this peptide / all reads for the bait, averaged over …
chain 1 P6K | 0.000974 average fractional NGS count over selection days 2 and 3 (reads of this peptide / all reads for the bait, averaged over …
